Assay results: PubChem BioAssay AID894 (National Center for Advancing Translational Sciences (NCATS), 2007)
In all, about 150,000 compounds went through this assay and about 6,500 (4.3%) were called active. Inconclusive results, whose numbers are uncertain, are shown with a selection of clear calls. Calls come from the whole dose curve; as a rule, active = well fitted inhibition curve with a large enough effect (not every such curve was filed as active); inconclusive = small, poorly fitted or top-dose-only effect, or another doubt; inactive = no such curve, though single readings can be large or run the other way. No potency is given beside an inconclusive call; the fits are too rough.

Target: 15-hydroxyprostaglandin dehydrogenase [NAD(+)] (Homo sapiens) (UniProt P15428)
Chain of UniProt P15428 (P15428 whole entry, looked up): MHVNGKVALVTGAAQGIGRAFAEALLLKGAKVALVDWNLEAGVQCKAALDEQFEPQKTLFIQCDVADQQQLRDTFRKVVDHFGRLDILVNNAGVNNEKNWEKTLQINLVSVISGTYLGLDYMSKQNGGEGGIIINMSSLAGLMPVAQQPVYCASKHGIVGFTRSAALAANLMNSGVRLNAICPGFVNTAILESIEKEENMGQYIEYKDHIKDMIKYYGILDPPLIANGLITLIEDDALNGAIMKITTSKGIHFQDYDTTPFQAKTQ
Experiment: qHTS Assay for Inhibitors of HPGD (15-Hydroxyprostaglandin Dehydrogenase)
Conditions: purified HPGD, NADH fluorescence kinetic, PGE2 substrate; activity change, negative = inhibition: hits give low values
In short: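 NADH formation kinetics: reaction with 30 uM PGE2 and 1 mM NAD+ (final), 20 nM enzyme, Tris-HCl pH 8 with Tween 20, after 15 min compound preincubation at room temperature. Fluorescence change, last versus first of five reads.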
% is set by controls: 0 for no effect and ±100 for the full control effect; potency is the fitted concentration of half-maximal effect; tags give direction and shape of the fitted curve.

Question: For OCCCc1nc2n(n1)C(c1ccccc1)C=C(c1ccc(F)cc1)N2 (configuration not stated), which Potency is on record?
Answer: The Potency was inconclusive [inhibitor, partial curve].

Question: How did the activity change, negative = inhibition turn out when CN1CCN(C(=O)/C(=C/c2cccs2)NC(=O)c2cccs2)CC1 was run?
Answer: The activity change, negative = inhibition was inactive: -10.7%.

Question: Cc1nn(-c2nnc(NC3CCCCC3)nn2)c(C)c1Br was tested. Which Potency did it give?
Answer: The Potency was active: 15.8 µM.

Question: For Nc1c(C(=O)NCC2CCCO2)sc2nc3c(c(-c4ccco4)c12)CC/C3=C\c1ccco1 (configuration not stated), which Potency is on record?
Answer: The Potency was active: 20 µM.

Question: Which Potency does the source give for O=C1CNC(=O)/C1=C/c1ccccc1 here?
Answer: Its Potency is active: 14.1 µM.

Question: Cn1c(-c2ccc(C(C)(C)C)cc2)n[nH]c1=S was tested. Which Potency did it give?
Answer: Its Potency is inconclusive [inhibitor, partial curve].

Question: O=C(Cn1c(COc2ccccc2)nc2ccccc21)Nc1cc(Cl)cc(Cl)c1 was tested. Which activity change, negative = inhibition did it give?
Answer: Its activity change, negative = inhibition is inactive: 1.28%.

Question: With C=CCn1c(=NC(=O)c2cc(-c3cccs3)nc3ccccc23)sc2cc(S(N)(=O)=O)ccc21 as the molecule, how does the Potency read?
Answer: Its Potency is inconclusive [inhibitor, partial curve].

Question: With Cn1c(SCC(=O)N2CCN(S(=O)(=O)c3ccccc3)CC2)nc2ccccc21 as the molecule, how does the activity change, negative = inhibition read?
Answer: The activity change, negative = inhibition was inactive: -3.64%.

Question: With CCCC(=O)n1nc(-c2ccco2)nc1SCc1ccccc1 as the molecule, how does the Potency read?
Answer: Its Potency is inconclusive [inhibitor, partial curve, poor fit].

Question: For Cc1onc(-c2ccccc2)c1C(=O)Nc1sc2c(c1C#N)CCC2, which Potency is on record?
Answer: The Potency was inconclusive [inhibitor, single point].

Question: How did the Potency turn out when O=C(Nc1ccc(Cl)c(Cl)c1)N1CC=CCC1 was run?
Answer: The Potency was inconclusive [inhibitor, partial curve].

Question: With CCOC(=O)/C(C#N)=C\c1ccc(OCC(=O)Nc2ccc(C)cc2C)c(OC)c1 as the molecule, how does the Potency read?
Answer: Its Potency is inconclusive [inhibitor, partial curve].

Question: Which Potency does the source give for CC(C)CCNc1nc(N2CCCC2)c2c(c1C#N)CCN(C)C2 here?
Answer: The Potency was inconclusive [inhibitor, partial curve].

Question: With Nc1ccc2c(c1)C(=O)C(=O)c1ccccc1-2 as the molecule, how does the Potency read?
Answer: The Potency was active: 2.24 µM.

Question: Which Potency does the source give for FC(F)(F)c1cc(-c2ccco2)nc(-n2cnc3ccccc32)n1 here?
Answer: The Potency was inconclusive [inhibitor, partial curve].

Question: With Cn1c(C(=O)NCc2ccccc2)cc2oc3ccccc3c21 as the molecule, how does the Potency read?
Answer: The Potency was inconclusive [inhibitor, partial curve].

Question: With CCCOC(=S)NC(=O)c1sc2ccccc2c1Cl as the molecule, how does the Potency read?
Answer: The Potency was active: 20 µM.

Question: With CNc1ccccc(C(=O)/C=C/c2ccccc2OC)c1=O as the molecule, how does the Potency read?
Answer: The Potency was active: 12.6 µM.

Question: For CC1=C(C(=O)OC(C)C)C(c2cccc([N+](=O)[O-])c2)n2c(cc(=O)[nH]c2=S)N1 (configuration not stated), which Potency is on record?
Answer: The Potency was active: 28.2 µM.

Question: How did the activity change, negative = inhibition turn out when CN(C)C(=C(C#N)C#N)N1CCN(c2ccc(Cl)c(Cl)c2)CC1 was run?
Answer: The activity change, negative = inhibition was inactive: -2.03%.

Question: Which Potency does the source give for CCN1CCN(C(=S)c2ccc([N+](=O)[O-])cc2)CC1 here?
Answer: Its Potency is active: 25.1 µM.

Question: Cc1nn(-c2ccccn2)c2nc(-c3cccs3)cc(C(=O)NCc3ccco3)c12 was tested. Which Potency did it give?
Answer: Its Potency is inconclusive [inhibitor, partial curve].

Question: How did the activity change, negative = inhibition turn out when COc1ccc(C2CC(c3ccc(F)cc3)Nc3nc(N)nn32)cc1 (configuration not stated) was run?
Answer: The activity change, negative = inhibition was inactive: -15.8%.

Question: Which Potency does the source give for CC1CCN(C(=S)c2ccc(O)cc2)CC1 here?
Answer: The Potency was active: 31.6 µM.

Question: How did the activity change, negative = inhibition turn out when O=C(O)c1[nH]nc2c1COc1ccccc1-2 was run?
Answer: The activity change, negative = inhibition was inactive: -22.4%.

Question: With COC(=O)N/N=C/c1cn(CCCOc2ccccc2)c2ccccc12 as the molecule, how does the Potency read?
Answer: The Potency was inconclusive [inhibitor, partial curve].

Question: With COc1ccc2c(c1)c(=O)oc1cc(OCC(=O)N3CCc4ccccc4C3)ccc12 as the molecule, how does the Potency read?
Answer: Its Potency is inconclusive [inhibitor, partial curve].

Question: Which Potency does the source give for C=CCC1CCCCC12NC(=O)NC2=O (configuration not stated) here?
Answer: Its Potency is inconclusive [inhibitor, full curve, poor fit].

Question: Which Potency does the source give for O=S(=O)(Nc1cc(Sc2cccc3cccnc23)c(O)c2ccccc12)c1ccc(F)cc1 here?
Answer: The Potency was active: 1.26 µM.

Question: Which Potency does the source give for CC(=O)Nc1c(C(=O)N2CCCCCC2)cnn1-c1ccccc1 here?
Answer: The Potency was inconclusive [inhibitor, partial curve].

Question: N#CC(C(=O)NCc1ccccc1)c1nc2ccccc2nc1N1CCCC1 (configuration not stated) was tested. Which Potency did it give?
Answer: The Potency was inconclusive [inhibitor, single point].

Question: Which activity change, negative = inhibition does the source give for Cc1nc(N(C)C)c2sc(=S)n(C)c2n1 here?
Answer: The activity change, negative = inhibition was inactive: -24.1%.

Question: Which Potency does the source give for O=C(NN1CCOCC1)c1cc(-c2cccs2)nc2ccccc12 here?
Answer: The Potency was inconclusive [inhibitor, partial curve].

Question: For CSCSC1=C(C#N)C(c2ccc(Cl)cc2)C(C(C)=O)=C(C)N1 (configuration not stated), which Potency is on record?
Answer: Its Potency is active: 31.6 µM.

Question: With O=[N+]([O-])c1ccc(NC(=S)N/C(=N/CS(=O)(=O)c2ccccc2)c2ccccc2)cc1 as the molecule, how does the Potency read?
Answer: Its Potency is active: 28.2 µM.

Question: For CC(C)(C)c1ccc(OCc2ccc(C(=O)N/N=C/c3ccc([N+](=O)[O-])cc3)o2)cc1, which activity change, negative = inhibition is on record?
Answer: Its activity change, negative = inhibition is inactive: -7.2%.

Question: With O=C1c2cccc3cc(Br)cc(c23)C(=O)N1Nc1ccc(Br)cc1 as the molecule, how does the activity change, negative = inhibition read?
Answer: Its activity change, negative = inhibition is inactive: -2.89%.

Question: With COC(=O)C1Cc2c([nH]c3ccccc23)C(C)N1 (configuration not stated) as the molecule, how does the activity change, negative = inhibition read?
Answer: Its activity change, negative = inhibition is inactive: -5.86%.

Question: With N#Cc1c(/N=C/c2cccs2)sc2c1CCCCC2 as the molecule, how does the Potency read?
Answer: Its Potency is inconclusive [inhibitor, partial curve].

Question: Which activity change, negative = inhibition does the source give for CCCCC/C=C\C[C@@H](O)/C=C/C=C\C/C=C\CCCC(=O)O here?
Answer: Its activity change, negative = inhibition is inactive: -3.66%.

Question: How did the Potency turn out when CC(C)(C)c1ccc(C2CC2C(=O)N/N=C\c2cc3ccccc3nc2Cl)cc1 (configuration not stated) was run?
Answer: Its Potency is inconclusive [inhibitor, partial curve].

Question: With C[C@@](N)(/C=C\c1ccccc1)C(=O)O as the molecule, how does the activity change, negative = inhibition read?
Answer: Its activity change, negative = inhibition is inactive: -6.02%.

Question: How did the Potency turn out when Cc1nn(-c2ccccc2)c(N2CCCC2)c1/C=N/Nc1ccc(S(=O)(=O)Nc2ccccc2)cc1[N+](=O)[O-] was run?
Answer: The Potency was inconclusive [inhibitor, single point].

Question: With CC1CCN(C(=O)C2CCC(CNS(=O)(=O)c3cccc4cccnc34)CC2)CC1 (configuration not stated) as the molecule, how does the Potency read?
Answer: The Potency was active: 0.891 µM.

Question: Which Potency does the source give for C/C(=N\O)C(=O)C(CN1CCCCC1)CN1CCCCC1 here?
Answer: The Potency was inconclusive [inhibitor, single point].

Question: Which Potency does the source give for O=C(NCCCN1CCOCC1)c1cnn2c(-c3ccccc3)cc(-c3ccccc3)nc12 here?
Answer: The Potency was inconclusive [inhibitor, partial curve].

Question: For O=C1CCC/C(=N/NC(=O)c2ccc(CN3c4cccc5cccc(c45)S3(=O)=O)cc2)C1, which Potency is on record?
Answer: Its Potency is inconclusive [inhibitor, partial curve].

Question: How did the Potency turn out when O=C(O)C1CCN(C(=O)COc2ccc3c4c(c(=O)oc3c2)CCC4)CC1 was run?
Answer: Its Potency is inconclusive [inhibitor, partial curve].

Question: Which Potency does the source give for COc1ccc(-n2c(C)nc3c(cnn3-c3ccc(Cl)cc3)c2=O)cc1 here?
Answer: The Potency was inconclusive [inhibitor, single point].

Question: For Clc1ccc(Nc2nc(C3CC3)cs2)cc1, which Potency is on record?
Answer: The Potency was inconclusive [inhibitor, partial curve].

Question: Cc1ccc(NC(=O)C(=O)NCc2ccc(/C=C(/C#N)C(=O)NCc3cccnc3)o2)cc1 was tested. Which Potency did it give?
Answer: The Potency was inconclusive [inhibitor, single point].

Question: How did the Potency turn out when COc1ccc(C2CC(c3ccc(Br)cc3)=NN2C(=O)CSC2=NCCS2)cc1 (configuration not stated) was run?
Answer: Its Potency is inconclusive [inhibitor, single point].

Question: How did the activity change, negative = inhibition turn out when CCN(CC)C(=O)CSc1nc2c(sc(=S)n2CC)c(=O)n1-c1ccccc1 was run?
Answer: Its activity change, negative = inhibition is inactive: -3.52%.

Question: For CC(=O)C1C(=O)C=C(c2ccco2)CC1c1ccccc1 (configuration not stated), which activity change, negative = inhibition is on record?
Answer: Its activity change, negative = inhibition is inactive: -25.9%.

Question: For Cc1ccc2c(c1)nnn2C1CCN(S(=O)(=O)c2ccc(C(=O)N3CC(C)CC(C)C3)cc2)CC1 (configuration not stated), which Potency is on record?
Answer: Its Potency is inconclusive [inhibitor, single point].

Question: With O=C(/C=C/c1ccc(-c2ccccc2)o1)c1ccccc1 as the molecule, how does the Potency read?
Answer: The Potency was active: 3.55 µM.

Question: COc1ccccc1-c1cncnc1-n1ccnc1 was tested. Which Potency did it give?
Answer: Its Potency is inconclusive [inhibitor, partial curve].

Question: For CN(C)c1ncc2nc(-c3cc(F)cc(F)c3)c(=O)n(Cc3cccs3)c2n1, which Potency is on record?
Answer: The Potency was inconclusive [inhibitor, full curve].

Question: For CCOC(=O)C1=C(c2ccccc2)ON(C)C1c1ccccc1 (configuration not stated), which activity change, negative = inhibition is on record?
Answer: Its activity change, negative = inhibition is inactive: -10.7%.

Question: Which Potency does the source give for COc1cc(OC)c2c(-c3cccc(-c4ccc(C(C)=O)cc4)c3)cc(=O)oc2c1 here?
Answer: Its Potency is inconclusive [inhibitor, partial curve].

Question: With Cc1cc(C)nc(NS(=O)(=O)c2ccc(NC(=O)c3ccc4c(c3)OCO4)cc2)n1 as the molecule, how does the Potency read?
Answer: The Potency was inconclusive [inhibitor, partial curve, poor fit].

Question: How did the Potency turn out when CCCCOc1ccc(/C=C/C(=O)OCC(=O)NC(=O)NCC(C)C)cc1OCC was run?
Answer: The Potency was inconclusive [inhibitor, partial curve].

Question: Nc1nonc1-c1nc2ccccc2n1CC(=O)O was tested. Which activity change, negative = inhibition did it give?
Answer: Its activity change, negative = inhibition is inactive: -9.51%.

Question: Cc1nn(-c2ccccc2)c(C)c1NC(=O)COc1ccc(F)cc1Cl was tested. Which activity change, negative = inhibition did it give?
Answer: The activity change, negative = inhibition was inactive: -16.4%.

Question: For Cc1nnc2n(Cc3ccccc3)c(=O)c3c4c(sc3n12)CN(Cc1ccccc1)CC4, which Potency is on record?
Answer: Its Potency is inconclusive [inhibitor, partial curve].

Question: With NC(=O)c1cnn2c(C(F)(F)F)cc(-c3ccc(F)cc3)nc12 as the molecule, how does the Potency read?
Answer: The Potency was inconclusive [inhibitor, partial curve].

Question: How did the activity change, negative = inhibition turn out when Cc1cccc(C(=O)NC(=S)N2CCN(C(=S)NC(=O)c3cccc(C)c3)CC2)c1 was run?
Answer: The activity change, negative = inhibition was inactive: -19.4%.

Question: How did the Potency turn out when NNc1nccc(Nc2ccccc2C(=O)O)n1 was run?
Answer: Its Potency is inconclusive [inhibitor, partial curve].

Question: Which Potency does the source give for CCc1nnc(NC(=O)CSc2nnc(-c3ccc(NS(=O)(=O)c4ccccc4)cc3)o2)s1 here?
Answer: The Potency was active: 14.1 µM.

Question: With CCOC(=O)c1ccccc1NC(=O)c1ccccc1SC as the molecule, how does the activity change, negative = inhibition read?
Answer: Its activity change, negative = inhibition is inactive: -10.5%.

Question: COc1ccccc1CN1CC2(CCN(C(=O)c3cccc(F)c3)CC2)C1 was tested. Which activity change, negative = inhibition did it give?
Answer: The activity change, negative = inhibition was inactive: -13.4%.
